In the supplement of paper PMC12217912:
This is one part of the list. Sequences were assembled here from the parent chain. Values near 0.05 are background.

B1: TEV protease; numbered along this chain (parent)
chain: MGESLFKGPRDYNPISSSICHLTNESDGHTTSLYGIGFGPFIITNKHLFRRNNGTLVVQSLHGVFKVKDTTTLQQHLVDGRDMIIIRMPKDFPPFPQKLKFREPQREERICLVTTNFQTKSMSSMVSDTSCTFPSGDGIFWKHWIQTKDGQCGSPLVSTRDGFIVGIHSASNFTNTNNYFTSVPKNFMELLTNQEAQQWVSGWRLNADSVLWGGHKVFMVKPEEPFQPVKEATQL

Variants of: B1
Assay: raw area under fraction-flipped curve 0-4 h after induction (AUC4h, not background-subtracted), DNA-recorder readout of cleavage of the substrate (dimensionless); higher = more cleavage of the substrate by the protease variant
Conditions: temperature: 34 °C; time window: 0-4 h after rhamnose induction
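Further: Bxb1 expression induced with 0.2% (w/v) L-rhamnose at OD600 near 0.5, cultures sampled hourly, flipped fraction per protease–substrate barcode pair counted by paired-end Illumina sequencing.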

Row | Variant | area with substrate ENLYFQN | area with substrate ENLYFQS | area with substrate ENLYFQV | area with substrate ENLYFQY | area with substrate ENLYFQT | area with substrate ENLYFQM | area with substrate ENLYFQL | area with substrate ENLYFQR | area with substrate ENLYFQP | area with substrate ENLYFQW
1 | F163G | 0.123 | 0.115 | 0.0593 | 0.0681 | – | – | – | – | – | –
2 | C131L | 0.0798 | 0.103 | 0.036 | – | – | – | – | – | – | –
3 | A196C | – | 0.0964 | – | – | 0.0802 | – | – | – | – | –
4 | N206M | 0.0837 | 0.104 | – | – | 0.0693 | 0.0897 | – | – | – | –
5 | N193V | – | 0.0994 | – | – | – | – | – | – | – | –
6 | G214H | 0.0664 | 0.0939 | 0.0458 | 0.0505 | – | – | 0.0452 | 0.0582 | – | –
7 | Q97V | – | 0.0931 | – | – | – | – | – | – | – | –
8 | V210A | – | 0.105 | – | – | – | – | 0.0478 | – | 0.0522 | 0.0652
9 | T159W | 0.0712 | 0.104 | – | – | – | – | 0.0584 | – | – | –
10 | P9T | – | 0.0954 | – | 0.1 | – | – | – | 0.0623 | – | 0.0725
11 | V78Q | 0.0565 | 0.0714 | – | – | – | – | – | – | 0.0533 | –
